Results: PubChem BioAssay AID686979 (National Center for Advancing Translational Sciences (NCATS), 2013)
About 50,000 (12%) of roughly 420,000 compounds were called active. The shares of active, inactive and inconclusive entries below differ from those in the screen. Calls follow the shape of the dose curve; as a rule, active = well fitted inhibition curve with a large enough effect; inconclusive = small, poorly fitted or top-dose-only effect; inactive = flat fitted curve, though single readings scatter. No potency is given beside an inconclusive call; the fits are too rough.

Assay: qHTS for Inhibitors of human tyrosyl-DNA phosphodiesterase 1 (TDP1): qHTS in cells in presence of CPT; also: nearly all actives have a fitted effect of over 55% in size
Conditions: chicken DT40 Tdp1-/-;hTDP1 cells + 20 nM CPT, ATP luminescence, 48 h; activity change, negative = growth inhibition: at 46.2 µM (top of the series) unless noted
How it was run: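 Chicken DT40 Tdp1-/- cells complemented with human TDP1, 400 cells/well, exposed to compounds plus 20 nM camptothecin for at least 48 h at 37 C; viability read as ATP content by CellTiter-Glo luminescence.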
% is scaled to controls: 0 for no effect and ±100 for the full control effect; potency is read from the fitted curve at half-maximal effect; tags tell the direction and shape of the fitted curve.

| SMILES | Potency | activity change, negative = growth inhibition |
| --- | --- | --- |
| CCOc1ccc(-c2cc(C(=O)NCc3cc(C(F)(F)F)cc(C(F)(F)F)c3)[nH]n2)c(C)c1 | inconclusive [inhibitor, full curve] |  |
| CCC(CC)CN1C(Nc2ccccc2)=NC[C@@H]1C | inconclusive [inhibitor, single point] |  |
| CCCCC1N2CC3([N+](=O)[O-])CN1CC([N+](=O)[O-])(C2)C3(C)C (stereo unspecified) | inactive |  |
| CCCCN(CC)CCNC(=O)C1CCN(S(=O)(=O)c2cccc3nsnc23)CC1 | inactive |  |
| COc1ccccc1NC(=O)c1ccc(-n2cccn2)c([N+](=O)[O-])c1 | inconclusive [inhibitor, single point] |  |
| CC(C)c1cc(C(=O)N2CCN(C(c3ccccc3)c3ccccc3)CC2)no1 | inconclusive [inhibitor, single point] |  |
| O=C(COc1ccccc1O)NCCN1CCOCC1 | inactive |  |
| CSc1nsc(NC(=O)Nc2ccccc2)n1 | inconclusive [inhibitor, single point] |  |
| COc1ccccc1N1CCN(C(=O)Cn2c(=O)n3nc(-c4cccc(F)c4)nc3c3ccccc32)CC1 | inactive |  |
| COCOc1cccc(CN2CCC(C)(Oc3ccc(C(C)=O)cc3)C2)c1 (stereo unspecified) | inconclusive [inhibitor, single point] |  |
| CCN(Cc1ccccc1)C(=O)c1cccc(S(=O)(=O)N2CCN(Cc3ccccc3)CC2)c1 | active: 16.4 µM |  |
| COc1cc(OC)c2nc(-c3cc4c(c(OC)c3)OCCN(C(=O)CC3NC(=O)c5ccccc53)C4)cc(C)c2c1 (stereo unspecified) | inconclusive [inhibitor, full curve, poor fit] |  |
| CC(O)c1cccc(NC(=O)CC(c2ccccc2)c2ccccc2)c1 (stereo unspecified) | active: 9.2 µM |  |
| CC(=O)Nc1cccc(Oc2nc(C(F)(F)F)nc3ccccc23)c1 | inconclusive [inhibitor, partial curve] |  |
| O=C(c1ccc(CS(=O)Cc2ccc(Cl)cc2)o1)N1CCN(c2ccccn2)CC1 (stereo unspecified) | inconclusive [inhibitor, single point] |  |
| COc1ccccc1NC(=O)c1cc(Cl)nc2ccccc12 | inactive |  |
| CCOc1ccc(NC(=S)N(CCCN2CCOCC2)Cc2cn(C)c3ccccc23)cc1 | inconclusive [inhibitor, partial curve, poor fit] |  |
| COc1ccc(-c2noc(CCC(=O)NCCCN3CCN(c4ccccc4F)CC3)n2)cc1 | active: 23.1 µM |  |
| O=C(/C=C/c1ccccc1[N+](=O)[O-])NCCCN1CCCC1=O | inactive |  |
| Cc1ccc(OCc2nnc(SCC(=O)Nc3ccc4c(c3)OCCO4)n2Cc2ccco2)cc1 | inconclusive [inhibitor, partial curve] |  |
| N[C@@H](Cc1cc(I)c(Oc2ccc(O)c(I)c2)c(I)c1)C(=O)O | inconclusive [inhibitor, single point] |  |
| O=C(COc1ccccc1)Nc1nnc(-c2ccc(Cl)cc2)o1 | inconclusive [inhibitor, single point] |  |
| Cc1ccccc1COC[C@H](CC(C)C)N1CCN(C(=O)c2cccc(C(F)(F)F)c2)CCC1=O | active: 16.4 µM |  |

| SMILES | Potency | activity change, negative = growth inhibition |
| --- | --- | --- |
| O=C(COc1ccc([N+](=O)[O-])cc1)Nc1cccc(C(=O)Nc2ccccc2C(=O)O)c1 | inactive |  |
| CC1CC2C3CCC4=CC(=O)CCC4(C)C3CCC2(C)C1(O)C(=O)CO (stereo unspecified) | inconclusive [inhibitor, single point] |  |
| CC(C(=O)Nc1ccc(O)cc1)c1cccc(C(=O)c2ccccc2)c1 (stereo unspecified) | inconclusive [inhibitor, single point] |  |
| COc1ccc2cc(/C=N/NC(=O)CSCc3ccc([N+](=O)[O-])cc3)c(Cl)nc2c1 | inconclusive [inhibitor, partial curve] |  |
| Cc1ccccc1Cc1c(C)nc2c(C(=O)NCc3ccc4c(c3)OCO4)cnn2c1C | active: 18.4 µM |  |
| Cc1ccc(Cn2nnc(C(=O)Nc3cc(C)ccc3C)c2N)cc1 |  | inconclusive: -31.8% [inhibitor] |
| O=C(O)CN(c1ccccc1)S(=O)(=O)c1cc(C(F)(F)F)cc(C(F)(F)F)c1 | inactive |  |
| CCOC(=O)Cc1csc(SCC(=O)NC(C)C23CC4CC(CC(C4)C2)C3)n1 (stereo unspecified) | inconclusive [inhibitor, single point] |  |
| CC(C)(C)NC(=O)C(c1cccc2ccccc12)n1c(=O)c(-c2ccccc2)nc2ccccc21 (stereo unspecified) | active: 20.6 µM |  |
| Cc1nc(Cc2nnc(SCC(=O)N3CCN(c4ccc(O)cc4)CC3)o2)cs1 | inconclusive [inhibitor, single point] |  |
| Cc1ccc(CSc2ccc3nnc(-c4cccnc4)n3n2)cc1 | active: 20.6 µM |  |
| Cc1ccc(C(=O)CSc2nnc3c4ccccc4nc(C(C)(C)C)n23)cc1 | inconclusive [inhibitor, single point] |  |
| CC(CCc1ccccc1)NC(=O)Cn1ncc2c3ccccc3n(Cc3ccccc3F)c2c1=O (stereo unspecified) | active: 8.2 µM |  |
| CC(C(=O)c1ccc(-c2ccccc2)cc1)[n+]1ccccc1 (stereo unspecified) | active: 2.59 µM |  |
| CC1=NN(c2ccccc2)C(=O)/C1=C\c1ccc(Br)s1 | inconclusive [inhibitor, single point] |  |
| CC(=O)c1c(C)[nH]c(C(=O)/C(C#N)=C/c2cccc(C)c2)c1C | inactive |  |
| O=C(CSC1=NCCS1)Nc1ccc(S(=O)(=O)N2CCCCCC2)cc1 | inconclusive [inhibitor, single point] |  |
| Cc1c(CC(=O)NCC(=O)NCC(=O)O)c(=O)oc2cc3oc4c(c3cc12)CCCC4 |  | inconclusive: -31.8% [inhibitor] |
| Cc1nnc(SCC(=O)Nc2nonc2C)s1 | inactive |  |
| CC[C@@]1(c2ccccc2)NC(=O)N(C)C1=O | inactive |  |
| O=C(Nc1cccc2nsnc12)c1cccnc1Cl | inactive |  |
| CC1CCN(CCn2c(=S)[nH]c3cc4c(cc3c2=O)OCO4)CC1 | inactive |  |
| O=C(CCn1c(=O)c2cccn2c2cccnc21)N1CCN(c2ccccc2)CC1 | inconclusive [inhibitor, single point] |  |
